Assay results: publication PMC10850134
These are yes or no findings as the source states them, for the method shown. In cells and extracts the contact can be indirect. Some entries that bind do so weakly or less than the wild type.

Chains of the proteins cited; added tags and fusions are not shown. Lines headed by an entry give the natural chain unless they say otherwise; changes in a name come on top. A line that says so, or that is headed by a name, gives the form on record, which may keep a tag or linker. Residues count along the entry.
UniProt O14639: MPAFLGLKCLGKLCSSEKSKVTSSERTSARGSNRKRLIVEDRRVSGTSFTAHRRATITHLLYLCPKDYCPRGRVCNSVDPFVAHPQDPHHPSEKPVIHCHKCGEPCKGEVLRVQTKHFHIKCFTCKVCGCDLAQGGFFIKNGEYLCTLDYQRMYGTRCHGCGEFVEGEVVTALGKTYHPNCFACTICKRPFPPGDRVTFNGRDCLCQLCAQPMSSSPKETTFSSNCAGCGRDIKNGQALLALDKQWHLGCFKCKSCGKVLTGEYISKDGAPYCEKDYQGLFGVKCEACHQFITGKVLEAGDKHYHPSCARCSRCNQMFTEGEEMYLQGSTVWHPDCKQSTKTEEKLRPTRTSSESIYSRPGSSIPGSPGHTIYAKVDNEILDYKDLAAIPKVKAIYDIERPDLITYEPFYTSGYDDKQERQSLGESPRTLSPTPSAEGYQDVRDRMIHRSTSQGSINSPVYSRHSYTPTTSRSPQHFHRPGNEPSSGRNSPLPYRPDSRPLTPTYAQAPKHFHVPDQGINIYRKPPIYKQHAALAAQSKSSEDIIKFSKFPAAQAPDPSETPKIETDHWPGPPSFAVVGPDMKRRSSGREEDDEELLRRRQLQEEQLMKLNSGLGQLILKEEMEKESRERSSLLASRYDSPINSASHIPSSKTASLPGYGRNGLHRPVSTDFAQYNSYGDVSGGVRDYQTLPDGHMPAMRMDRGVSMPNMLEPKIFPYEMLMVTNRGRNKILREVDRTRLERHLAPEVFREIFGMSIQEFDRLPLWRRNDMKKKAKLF
Flag-tagged ABLIM1 1-401aa (LIM domains): residues 1-401 of O14639
Flag-tagged ABLIM1 1-216aa: residues 1-216 of O14639
Flag-tagged ABLIM1 402-778aa: residues 402-778 of O14639
UniProt P25963: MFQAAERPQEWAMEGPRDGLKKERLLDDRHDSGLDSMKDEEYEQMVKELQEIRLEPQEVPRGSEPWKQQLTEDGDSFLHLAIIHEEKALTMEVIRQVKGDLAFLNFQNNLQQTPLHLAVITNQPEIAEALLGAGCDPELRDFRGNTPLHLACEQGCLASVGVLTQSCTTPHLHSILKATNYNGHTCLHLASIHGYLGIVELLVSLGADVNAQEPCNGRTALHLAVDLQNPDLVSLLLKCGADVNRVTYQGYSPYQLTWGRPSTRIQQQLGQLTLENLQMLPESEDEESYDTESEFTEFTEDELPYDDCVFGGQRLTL
IĸBα non-phosphorylation mutant (S32/36 A) (P25963, form named): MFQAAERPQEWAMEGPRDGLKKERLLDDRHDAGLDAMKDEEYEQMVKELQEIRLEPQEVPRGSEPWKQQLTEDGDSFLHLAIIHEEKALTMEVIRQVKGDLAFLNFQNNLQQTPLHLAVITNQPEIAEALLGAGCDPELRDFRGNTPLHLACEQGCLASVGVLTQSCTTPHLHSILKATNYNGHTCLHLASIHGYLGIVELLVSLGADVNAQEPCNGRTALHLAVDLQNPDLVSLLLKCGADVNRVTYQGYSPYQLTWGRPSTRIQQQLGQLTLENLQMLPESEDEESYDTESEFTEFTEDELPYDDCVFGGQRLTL

Key:
[1] = biological target: Actin-binding LIM protein 1 (ABLIM1), full-length (1-778aa), Flag-tagged (human) (UniProt O14639); assay: co-IP; HCT116 (Fig. 7C) or RKO (Fig. 7G) cells transfected with Flag-ABLIM1 constructs or empty vector; Nonidet P-40 lysate; precipitating antibody not stated; immunoblot
[2] = biological target: Flag-tagged ABLIM1 1-216aa (human) (UniProt O14639); assay: as above
[3] = biological target: Flag-tagged ABLIM1 1-401aa (LIM domains) (human) (UniProt O14639); assay: as above
[4] = biological target: Flag-tagged ABLIM1 402-778aa (human) (UniProt O14639); assay: as above
[5] = biological target: Actin-binding LIM protein 1 (ABLIM1), full-length (1-778aa), Flag-tagged (human) (UniProt O14639); assay: co-IP; HCT116 and RKO cells transfected with NFKBIA and ABLIM1 for 48 h; Nonidet P-40 lysate; IP with anti-ABLIM1 antibody or control IgG, 4 °C overnight, protein A or G beads; immunoblot. Fig. S4: also with BAY11-7082 or srIĸBα (antibody of that IP not shown)

binding [1] | binding [2] | binding [3] | binding [4] | binding [5] | Substance
binds | no binding | no binding | binds | – | IĸBα in lysates of HCT116 or RKO cells transfected with Flag-ABLIM1 constructs (from UniProt P25963 1-317)
– | – | – | – | binds | IĸBα non-phosphorylation mutant (S32/36 A) (from UniProt P25963 1-317)
– | – | – | – | binds | IĸBα, wide type (full-length), HA-tagged (from UniProt P25963 1-317)
